In paper PMC4336329 (PLoS ONE, 2015):
The campaign covered roughly 310,000 compounds. About 2,200 (0.71%) showed an effect of 50% or more. The effect is printed as a negative number. Some of the results follow.

target: human ether-à-go-go-related gene (hERG) potassium channel (human, UniProt Q12809); assay: primary screen, population patch clamp on CHO cells stably expressing hERG
Sequence (Q12809 whole entry, looked up): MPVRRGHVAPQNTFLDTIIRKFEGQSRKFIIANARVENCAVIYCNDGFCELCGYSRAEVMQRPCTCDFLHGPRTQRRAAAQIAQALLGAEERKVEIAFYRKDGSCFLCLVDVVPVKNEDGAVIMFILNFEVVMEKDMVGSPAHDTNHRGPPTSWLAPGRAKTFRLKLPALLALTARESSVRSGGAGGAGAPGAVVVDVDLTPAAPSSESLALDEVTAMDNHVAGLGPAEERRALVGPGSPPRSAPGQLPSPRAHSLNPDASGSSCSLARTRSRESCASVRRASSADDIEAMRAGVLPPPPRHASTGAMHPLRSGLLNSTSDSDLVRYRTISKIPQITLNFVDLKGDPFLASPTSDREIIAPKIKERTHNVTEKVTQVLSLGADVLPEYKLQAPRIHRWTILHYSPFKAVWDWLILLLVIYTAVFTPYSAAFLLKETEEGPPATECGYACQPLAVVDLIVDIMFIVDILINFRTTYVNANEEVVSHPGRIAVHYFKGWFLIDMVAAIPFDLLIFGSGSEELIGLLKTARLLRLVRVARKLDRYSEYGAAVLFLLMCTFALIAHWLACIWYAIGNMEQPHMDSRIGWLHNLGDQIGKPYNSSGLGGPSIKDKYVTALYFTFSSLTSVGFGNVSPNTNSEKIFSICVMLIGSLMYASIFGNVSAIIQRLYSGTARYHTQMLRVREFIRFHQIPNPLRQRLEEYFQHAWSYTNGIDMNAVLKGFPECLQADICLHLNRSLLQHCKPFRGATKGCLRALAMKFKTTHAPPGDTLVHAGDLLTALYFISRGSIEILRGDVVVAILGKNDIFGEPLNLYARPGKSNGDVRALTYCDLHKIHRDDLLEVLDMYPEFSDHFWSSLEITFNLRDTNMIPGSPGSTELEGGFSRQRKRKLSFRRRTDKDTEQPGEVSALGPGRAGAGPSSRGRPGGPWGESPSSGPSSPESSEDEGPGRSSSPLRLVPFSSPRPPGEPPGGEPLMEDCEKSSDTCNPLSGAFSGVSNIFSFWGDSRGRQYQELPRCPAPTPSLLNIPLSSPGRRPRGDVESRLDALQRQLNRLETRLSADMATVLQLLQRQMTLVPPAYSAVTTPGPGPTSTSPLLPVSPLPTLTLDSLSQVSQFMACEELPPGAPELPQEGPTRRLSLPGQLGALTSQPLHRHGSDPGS

| SMILES | hERG current change (%, negative = inhibition) at 1uM [%] |
| --- | --- |
| CCN(CC(=O)NCc1cccs1)C(=O)COc1ccc(C(N)=O)cc1 | 6.77 |
| COc1ccc(NC(=O)C(=O)N/N=C/c2cccnc2)c(OC)c1 | 19.6 |
| Cc1ccc(Cl)cc1NC(=O)C1CCCN(S(C)(=O)=O)C1 (centres unmarked) | 7.81 |
| O=C(CSc1nncn1-c1cccnc1)Nc1cccc(C(F)(F)F)c1 | -3.57 |
| COC(=O)/C(=N/Nc1ccccc1)N1CCCc2ccccc21 | 12.9 |
| COc1ccc(-c2cc(C(=O)O)c3ccccc3n2)c(OC)c1 | 12.2 |
| Cc1cccc(NC(=O)CSc2nnc(-c3ccc(S(=O)(=O)N4CCCC4)cc3)o2)c1 | 4.78 |
| Cc1cc(C(=O)OCC(=O)NC2CCC(C)CC2)c(C)o1 (centres unmarked) | 10.4 |
| C=CCn1c(CNC(=O)c2ccco2)nnc1SCC(=O)Nc1cccc(F)c1 | -4.82 |
| Cn1c(=O)cc(N2CCN(C(=O)c3ccco3)CC2)[nH]c1=O | 7.66 |
| O=C(COC(=O)COc1ccccc1)Nc1ccccc1OC(F)F | -2.95 |
| Cc1ccc(S(=O)(=O)NCC(=O)OCC(=O)NCc2cccs2)cc1 | 9.63 |
| O=C(ON=C1CCN(S(=O)(=O)c2ccccc2)CC1)c1ccccc1 | 10.6 |
| CCOC(=O)C1CCN(S(=O)(=O)c2ccc(NC(=O)c3ccco3)cc2)CC1 | 2.95 |
| CCCNc1ncnc2sc(C)c(C)c12 | 9.55 |
| Cc1nn(-c2ccccc2)c(C)c1C(=O)OCC(=O)NCc1ccco1 | 8.85 |
| COC(=O)[C@@H](NC(=O)NCc1cccs1)C(C)C | -3.55 |
| CCCc1cc(=O)[nH]c(SCC(=O)Nc2cc(S(=O)(=O)N3CCCCC3)ccc2C)n1 | 2.12 |
| COCCNC(=S)Nc1ccc([N+](=O)[O-])cc1C | 18.1 |
| CCOC(=O)C1(Cc2ccccc2C)CCCN(C(=O)c2ccc(COC)o2)C1 (centres unmarked) | 2.13 |

| SMILES | hERG current change (%, negative = inhibition) at 1uM [%] |
| --- | --- |
| COc1ccc(CNc2nc3ccc(C)cc3s2)c(OC)c1OC | 9.14 |
| O=C(COC(=O)c1cncc(Br)c1)NCc1ccccc1 | 11.4 |
| CCCCC1NC(=S)N(C2CCCCC2)C1=O (centres unmarked) | 8.27 |
| CCCC(=O)NC(=S)Nc1c(C)cc(Br)cc1C | -1.79 |
| Cc1ccc(C(=O)NCC(=O)NCCCc2ccccc2)cc1 | 8.68 |
| Cc1ccccc1C(=O)N1CCN(c2ccc([N+](=O)[O-])c(NCc3cccnc3)c2)CC1 | 0.055 |
| CCOC(=O)c1c(NC(=O)COC(=O)CCOc2ccccc2C)sc(C(=O)NC)c1C | 15.2 |
| O=c1c2ccccc2nc(SCc2cccc(F)c2)n1C1CCCC1 | -19.6 |
| COc1ccccc1N(C)S(=O)(=O)c1ccc(C(=O)NCC(C)C)cc1 | -3.31 |
| Cl.c1coc(CN2CCN(C(c3cccs3)c3nnnn3C3CCCC3)CC2)c1 (centres unmarked) | 0.199 |
| COC(=O)c1ccc(NC(=O)CSc2nc(=O)n3cccc(C)c3n2)cc1 | 5.91 |
| COc1ccc(C2=C/C(=C\c3ccc(OC(C)=O)cc3)C(=O)O2)cc1 | 9.48 |
| COc1ccc(N2CCN(C(=O)COCC(=O)O)CC2)cc1 | 13.4 |
| CCNC(=O)CN1C(=O)NC2(CCCCCC2)C1=O | 15.8 |
| COc1cc(C(=O)NCC(=O)N/N=C/c2ccco2)cc(OC)c1OC | 14.8 |
| Cc1cccc(OCc2n[nH]c(=S)o2)c1 | 15.5 |
| O=C(Nc1cccc(O)c1)c1cc(S(=O)(=O)N2CCCC2)ccc1Cl | 12.4 |
| O=C(CN1C(=O)c2ccccc2C1=O)N1CCN(C(=O)c2ccco2)CC1 | -2.58 |
| Cc1nc(-c2ccc(S(=O)(=O)Nc3cccc(S(N)(=O)=O)c3)s2)cs1 | 5.78 |
| Cc1cccnc1NC(=O)C(c1ccccc1)c1ccccc1 | 13.3 |

| SMILES | hERG current change (%, negative = inhibition) at 1uM [%] |
| --- | --- |
| COCCn1c(C)cc(C2=NNC(=Nc3ccc(OC)cc3)SC2)c1C | 13 |
| O=C(O)C(C(=O)O)=C1C2CC3CC(C2)CC1C3 | 15.8 |
| CCc1ccc(/C=N/NC(=O)c2cc(C3CC3)nc3ccc(Br)cc23)s1 | 12.3 |
| O=C(NC1CCCC1)C1C2C=CC3(CN(Cc4cccs4)C(=O)C13)O2 (centres unmarked) | 9.42 |
| Cc1cc(C(=O)CSc2nc3ccccc3o2)c(C)n1C1CC1 | 12 |
| Cc1cccc(/C=N/NC(=O)c2ccccc2OCc2cccc(Br)c2)n1 | 11 |
| CCCCNc1oc(-c2ccc(OC)cc2)nc1S(=O)(=O)c1ccccc1 | 6.01 |
| O=C(/C(=C/O)N=Nc1ccccc1)c1cccs1 | 11.9 |
| COC(=O)N/N=C/c1ccc(-c2cc(Cl)cc(Cl)c2)o1 | 3.07 |
| OCC[C@@H]1C[C@@H](O)[C@H](O)[C@]2(CCCc3ccccc3O2)O1 | 2.37 |
| Cn1c(=O)[nH]c2c(nc(-c3ccc(Cl)cc3)n2C)c1=O | 16.8 |
| CCOc1cc(N2CCOCC2)c(OCC)cc1NC(=O)c1[nH]c(C)c(C(C)=O)c1C | 10.7 |
| C=CCn1c(COc2ccc(CC)cc2)nnc1SCC(=O)N(C)C1CCS(=O)(=O)C1 (centres unmarked) | 6.15 |
| CCc1nc(C)cn1S(=O)(=O)c1ccc(Br)cc1 | 16.2 |
| COC(CNC(=O)c1ccc2nc(-c3cccs3)c(-c3cccs3)nc2c1)OC | 6.81 |
| COc1ccc(NC(=O)C(=O)N2N=C3CCCCC3C2(O)C(F)(F)F)cc1 (centres unmarked) | 10.8 |
| COc1cc(NC(=O)n2ncc3cc(Cl)ccc32)cc(OC)c1 | 16.6 |
| CC1(C)CSC(=S)N1S(=O)(=O)c1ccccc1 | 3.38 |
| COc1ccc(C(=O)NCC(=O)N2CCN(c3ncccn3)CC2)cc1OC | 19.6 |
